Laboratory results taken from PMC5440653.
Results are given in words; binding and its absence hold for the method and conditions named. For part of these data: Binding seen in cells or lysates may run through a third protein. Some results given as binding are weak or reduced against the parent protein; the word gives no strength. Blank lines part the entries; values can stand above or below the substance they belong to.

The chains behind the UniProt entries cited, without tags or fusion partners. Where a name states a change or a piece, a line headed by the entry shows the natural chain unless it says otherwise. Residues count along the entry.
UniProt Q92673: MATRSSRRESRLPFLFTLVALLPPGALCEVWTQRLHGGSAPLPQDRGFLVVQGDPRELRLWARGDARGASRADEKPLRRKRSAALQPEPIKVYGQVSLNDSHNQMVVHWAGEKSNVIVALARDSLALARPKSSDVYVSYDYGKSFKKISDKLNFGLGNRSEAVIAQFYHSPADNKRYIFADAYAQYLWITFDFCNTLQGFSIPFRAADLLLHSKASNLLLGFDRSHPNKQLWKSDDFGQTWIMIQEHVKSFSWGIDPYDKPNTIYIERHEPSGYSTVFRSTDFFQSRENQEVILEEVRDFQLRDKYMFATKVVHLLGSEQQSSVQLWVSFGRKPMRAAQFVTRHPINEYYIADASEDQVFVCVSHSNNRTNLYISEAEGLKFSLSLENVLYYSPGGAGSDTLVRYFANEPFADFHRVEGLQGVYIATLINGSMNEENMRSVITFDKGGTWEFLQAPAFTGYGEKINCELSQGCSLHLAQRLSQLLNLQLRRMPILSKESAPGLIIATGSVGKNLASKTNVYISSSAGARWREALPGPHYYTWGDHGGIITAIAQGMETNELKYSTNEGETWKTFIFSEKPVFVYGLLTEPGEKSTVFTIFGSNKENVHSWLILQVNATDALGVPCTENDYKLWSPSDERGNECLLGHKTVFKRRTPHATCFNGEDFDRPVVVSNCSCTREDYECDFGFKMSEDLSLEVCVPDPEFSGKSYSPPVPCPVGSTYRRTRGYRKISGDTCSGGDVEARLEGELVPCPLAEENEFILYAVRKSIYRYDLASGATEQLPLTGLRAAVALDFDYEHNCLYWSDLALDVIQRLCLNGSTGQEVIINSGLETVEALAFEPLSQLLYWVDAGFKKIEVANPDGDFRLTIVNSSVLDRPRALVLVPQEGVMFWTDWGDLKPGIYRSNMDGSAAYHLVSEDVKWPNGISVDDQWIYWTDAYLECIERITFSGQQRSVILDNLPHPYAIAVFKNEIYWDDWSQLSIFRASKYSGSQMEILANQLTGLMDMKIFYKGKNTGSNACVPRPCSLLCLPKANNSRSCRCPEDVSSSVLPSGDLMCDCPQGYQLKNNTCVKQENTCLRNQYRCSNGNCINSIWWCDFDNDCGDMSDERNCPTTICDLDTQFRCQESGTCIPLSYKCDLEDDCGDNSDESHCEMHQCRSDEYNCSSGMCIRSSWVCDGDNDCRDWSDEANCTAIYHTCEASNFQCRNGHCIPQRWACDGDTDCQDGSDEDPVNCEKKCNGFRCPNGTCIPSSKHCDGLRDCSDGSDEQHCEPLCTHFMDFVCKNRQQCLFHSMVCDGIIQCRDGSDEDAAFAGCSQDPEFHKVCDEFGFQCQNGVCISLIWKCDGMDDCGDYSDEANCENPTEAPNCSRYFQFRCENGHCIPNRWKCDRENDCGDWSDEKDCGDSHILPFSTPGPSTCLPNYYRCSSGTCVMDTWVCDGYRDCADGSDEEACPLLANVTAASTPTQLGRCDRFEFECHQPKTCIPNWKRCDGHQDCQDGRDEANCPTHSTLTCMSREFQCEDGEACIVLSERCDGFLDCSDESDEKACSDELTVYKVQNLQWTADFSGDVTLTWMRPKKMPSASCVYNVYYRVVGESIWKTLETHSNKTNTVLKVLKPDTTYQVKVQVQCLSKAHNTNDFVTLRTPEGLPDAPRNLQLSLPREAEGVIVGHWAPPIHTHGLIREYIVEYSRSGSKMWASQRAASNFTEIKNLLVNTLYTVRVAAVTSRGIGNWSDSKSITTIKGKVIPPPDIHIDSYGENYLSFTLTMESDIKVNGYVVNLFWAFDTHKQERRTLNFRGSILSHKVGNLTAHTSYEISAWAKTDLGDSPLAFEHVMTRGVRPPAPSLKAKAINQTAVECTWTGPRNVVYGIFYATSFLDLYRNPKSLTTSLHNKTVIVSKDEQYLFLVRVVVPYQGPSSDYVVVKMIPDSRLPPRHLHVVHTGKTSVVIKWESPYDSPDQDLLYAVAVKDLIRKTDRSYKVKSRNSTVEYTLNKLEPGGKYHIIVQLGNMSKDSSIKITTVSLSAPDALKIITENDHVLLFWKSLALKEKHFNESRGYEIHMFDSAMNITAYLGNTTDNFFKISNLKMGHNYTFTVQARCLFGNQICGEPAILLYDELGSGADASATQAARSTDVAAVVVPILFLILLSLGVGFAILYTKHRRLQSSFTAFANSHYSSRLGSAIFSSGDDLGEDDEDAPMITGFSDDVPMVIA
UniProt P40189: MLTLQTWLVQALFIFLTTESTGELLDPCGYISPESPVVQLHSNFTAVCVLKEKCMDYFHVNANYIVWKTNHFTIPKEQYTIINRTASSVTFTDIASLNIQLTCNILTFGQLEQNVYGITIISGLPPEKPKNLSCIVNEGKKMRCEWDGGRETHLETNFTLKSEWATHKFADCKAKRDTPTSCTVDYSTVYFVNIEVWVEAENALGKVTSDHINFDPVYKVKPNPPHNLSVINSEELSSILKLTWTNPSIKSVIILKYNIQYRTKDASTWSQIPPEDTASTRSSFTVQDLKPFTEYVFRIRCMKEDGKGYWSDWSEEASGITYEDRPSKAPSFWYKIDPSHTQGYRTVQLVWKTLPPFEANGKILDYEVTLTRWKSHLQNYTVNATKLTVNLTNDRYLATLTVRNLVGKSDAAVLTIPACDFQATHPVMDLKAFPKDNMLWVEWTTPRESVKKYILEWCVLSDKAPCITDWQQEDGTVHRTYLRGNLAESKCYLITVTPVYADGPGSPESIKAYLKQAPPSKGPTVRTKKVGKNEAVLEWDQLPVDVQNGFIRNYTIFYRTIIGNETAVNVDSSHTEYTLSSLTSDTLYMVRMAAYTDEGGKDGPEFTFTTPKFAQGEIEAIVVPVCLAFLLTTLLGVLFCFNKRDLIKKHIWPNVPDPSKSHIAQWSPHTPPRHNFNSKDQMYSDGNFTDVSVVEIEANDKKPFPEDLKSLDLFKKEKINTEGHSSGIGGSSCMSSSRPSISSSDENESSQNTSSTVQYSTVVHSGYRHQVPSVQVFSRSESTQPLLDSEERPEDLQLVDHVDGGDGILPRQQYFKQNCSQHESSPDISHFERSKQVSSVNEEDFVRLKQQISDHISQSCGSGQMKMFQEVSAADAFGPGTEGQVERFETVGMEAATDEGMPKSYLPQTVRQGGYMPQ
soluble human gp130-Fc: residues 23-619 of P40189
UniProt P08887: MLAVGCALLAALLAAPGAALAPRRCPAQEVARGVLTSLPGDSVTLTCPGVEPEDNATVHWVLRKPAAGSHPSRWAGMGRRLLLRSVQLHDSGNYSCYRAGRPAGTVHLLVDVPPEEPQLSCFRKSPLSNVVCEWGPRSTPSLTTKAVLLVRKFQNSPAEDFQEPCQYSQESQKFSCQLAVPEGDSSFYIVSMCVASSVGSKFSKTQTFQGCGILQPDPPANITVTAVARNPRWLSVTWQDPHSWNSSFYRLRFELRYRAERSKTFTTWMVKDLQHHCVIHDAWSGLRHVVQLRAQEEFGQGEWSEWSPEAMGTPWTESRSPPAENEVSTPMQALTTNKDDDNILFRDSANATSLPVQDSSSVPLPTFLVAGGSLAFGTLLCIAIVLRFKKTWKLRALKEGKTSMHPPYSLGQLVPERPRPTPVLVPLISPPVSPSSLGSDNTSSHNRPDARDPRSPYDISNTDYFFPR
UniProt P05231, residues 30-212: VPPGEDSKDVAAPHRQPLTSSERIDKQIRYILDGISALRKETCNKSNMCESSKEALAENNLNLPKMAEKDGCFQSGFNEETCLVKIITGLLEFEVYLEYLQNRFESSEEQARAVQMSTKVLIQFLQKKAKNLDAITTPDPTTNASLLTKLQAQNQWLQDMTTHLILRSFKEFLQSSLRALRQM

Assays:
[1] = target: soluble SorLA (SorLA ectodomain, luminal part) (human) (UniProt Q92673); test: SPR; competition: immobilized sSorLA or SorLA Vps10p-D saturated with propeptide (2 uM), then a mixture of propeptide (2 uM) and IL-6 or sIL-6R (100 nM) injected; both purified
[2] = target: soluble SorLA (SorLA ectodomain, luminal part) (human) (UniProt Q92673); test: SPR; competition with neurotensin on immobilized sSorLA; data not shown; both purified
[3] = target: full-length SorLA (human) (UniProt Q92673); test: cross-linking; transfected HEK293 cells treated 45 min with the membrane-impermeable, thiol-cleavable cross-linker DTSSP, lysed in 1% Triton X-100, immunoprecipitated with rabbit anti-SorLA, reducing SDS-PAGE, blot for IL-6R
[4] = target: soluble human gp130-Fc (human) (UniProt P40189); test: SPR; data not shown; who was immobilized is not told; both purified
[5] = target: soluble IL-6 receptor (IL-6R ectodomain) (human) (UniProt P08887); test: SPR; competition: immobilized sIL-6R subjected to sSorLA (1 uM), then a mixture of sSorLA (1 uM) and IL-6 (100 nM) injected; both purified
[6] = target: full-length transmembrane IL-6 receptor (human) (UniProt P08887); test: co-IP; no cross-linker; transfected HEK293 cells biolabeled with [35S]cysteine and [35S]methionine (4 h, 37°C), lysed, immunoprecipitated with anti-IL-6R, reducing SDS-PAGE and autoradiography
[7] = target: full-length SorLA (human) (UniProt Q92673); test: cross-linking + co-IP; full-length receptors in cells; told in the discussion only, no data shown

binding [3]: binds
Substance: full-length transmembrane IL-6 receptor (from UniProt P08887 20-468)

binding [1]: binds
binding [2]: binds
Substance: soluble IL-6 receptor (IL-6R ectodomain) (from UniProt P08887 20-365)

Second part, the substance before the results:

Substance: Interleukin-6 (from UniProt P05231 30-212) (ligand)
binding [1]: binds
binding [2]: binds

Substance: soluble SorLA (SorLA ectodomain, luminal part) (from UniProt Q92673 82-2137) (receptor)
binding [4]: binds
binding [5]: binds

Substance: full-length SorLA (from UniProt Q92673 82-2214) (receptor)
binding [6]: binds

Substance: full-length gp130 (from UniProt P40189 23-918) (receptor)
binding [7]: no binding
